# Assay results as given in PubChem BioAssay AID624202 (National Center for Advancing Translational Sciences (NCATS), 2012).
# Out of some 380,000 compounds screened, about 4,000 (1.1%) were called active. This list was built around the results that the source calls inconclusive (neither active nor inactive); the mix of calls is not that of the screen. Calls come from the whole dose curve; as a rule, active = well fitted activation curve with a large enough effect; inconclusive = small, poorly fitted or top-dose-only effect; inactive = no such curve, though single readings can be large or run the other way. A potency beside an inconclusive call is a rough fit, not a confirmed value.
# Assay: qHTS Assay to Identify Small Molecule Activators of BRCA1 Expression; note: nearly all actives have a fitted effect of over 80% in size
# Conditions: MCF7-BRCA1-FFLuc reporter, luminescence, 48 h; activation: at 46.1 µM (top of the series), scaled: vehicle 0%, 10 µM genistein 100% unless noted
# Method in brief: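 Quantitative HTS in MCF7 cells stably reporting BRCA1 expression via firefly luciferase. Compound treatment lasts 48 h at 37 °C in phenol-red free MEM. Activation is expressed relative to genistein at 10 microM and DMSO.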
# Potency is the fitted concentration of half-maximal effect; tags give direction and shape of the fitted curve.
Structure (SMILES),Potency,activation
O=C(O)c1cc(N/N=C/c2c[nH]c3ccccc23)ccc1Cl,active: 3.16 µM,–
CC1CCc2nc(/C(C#N)=C/c3cccnc3)sc2C1 (stereo not drawn),"inconclusive: 3.16 µM [activator, full curve, poor fit]",–
CC(C)c1nnc(NC(=O)c2ccc3ccccc3c2)s1,"inconclusive: 1.26 µM [activator, full curve, poor fit]",–
Cc1ccc(C)c(NC(=O)c2cc(=O)c3ccccc3o2)c1,"inconclusive: 14.1 µM [activator, partial curve, poor fit]",–
Clc1ccc2nc(-c3ccco3)c(Cc3ccsc3)n2c1,inactive,–
COc1ccc(-c2nc3ccccc3s2)cc1,inactive,–
O=C(Nc1cccc(NC(=O)c2cccs2)c1)c1ccc2c(c1)OCCO2,"inconclusive: 10 µM [activator, partial curve, poor fit]",–
Cc1ccccc1NC(=O)/C(C#N)=C/c1ccc(-c2ccc(Cl)c(C(=O)O)c2)o1,"inconclusive: 11.2 µM [activator, partial curve, poor fit]",–
CC(=O)c1ccc(NC(=O)c2noc3c2CCCCC3)cc1,"inconclusive: 0.316 µM [activator, full curve, poor fit]",–
CC1CCN(C(=O)CSc2nc3ccccc3s2)CC1,"inconclusive: 6.31 µM [activator, partial curve, poor fit]",–
CN(C)/N=C/C=C1\CC/C(=C\c2ccc(Br)cc2)C1=O,"inconclusive: 14.1 µM [activator, single point]",–
CCS(=O)(=O)N1CCC(C(=O)Nc2ccc3c(c2)CCC3)CC1,"inconclusive: 35.5 µM [activator, single point]",–
CCC(=O)Nc1ccc2oc(-c3ccccc3Br)nc2c1,"inconclusive: 1.12 µM [activator, full curve, poor fit]",–
OC[C@@H]1CC[C@@H](Cc2ccc(-c3ccccc3)cc2)O1,"inconclusive: 2.82 µM [activator, full curve, poor fit]",–
O=C(NCC1CCCO1)Nc1ccc(Cl)cc1 (stereo not drawn),active: 10 µM,–
COc1ccc(-n2nc(C(=O)NCC(=O)N3CCN(c4ccccn4)CC3)c3ccccc3c2=O)c(OC)c1,"inconclusive: 14.1 µM [activator, single point]",–
CCSc1ccc(-c2ccc(C)cc2)nn1,active: 2.51 µM,–
O=C(Nc1nc2ccc(S(=O)(=O)N3CCCC3)cc2s1)c1cccs1,"inconclusive: 35.5 µM [activator, single point]",–
COc1ccc(C(CC(=O)Nc2nccs2)n2cccc2)cc1 (stereo not drawn),active: 6.31 µM,–
Cc1cc(=O)oc2cc(Oc3ncccn3)ccc12,"inconclusive: 22.4 µM [activator, single point]",–
O=C(CSc1ncn(-c2ccccc2)n1)c1cccs1,"inconclusive: 10 µM [activator, partial curve, poor fit]",–
O=C(NCC1CCCCN1)c1cc(OCC(F)(F)F)ccc1OCC(F)(F)F (stereo not drawn),–,inconclusive: -62.5% [activator]
O=C(Nc1nc2ccccc2s1)c1ccc(Cl)s1,"inconclusive: 1.12 µM [activator, full curve, poor fit]",–
O=C(c1cc(-c2cccc(O)c2)on1)N1CCCCCC1,"inconclusive: 7.08 µM [activator, partial curve, poor fit]",–
COc1ccc2nc(NC(=O)C3COc4ccccc4O3)sc2c1 (stereo not drawn),"inconclusive: 1.58 µM [activator, partial curve, poor fit]",–

Structure (SMILES),Potency,activation
COc1cccc(NC(=O)CN(C)CC(=O)Nc2ccc(C)c(S(=O)(=O)N3CCOCC3)c2)c1,inactive,–
COc1cc(Cl)ccc1OCc1cc(C(=O)N2C[C@H]3CC[C@H]2C3)no1,active: 11.2 µM,–
O=C(/C=C\Nc1ccc(Br)cc1)c1cccnc1,"inconclusive: 1.41 µM [activator, full curve, poor fit]",–
CN(C)C(=S)Nc1nc2ccccc2s1,active: 3.55 µM,–
Cc1ccc(C(=O)/C=C/Nc2cccc(O)c2)cc1,"inconclusive: 35.5 µM [activator, single point]",–
Cc1ccc2nc(-c3ccc(Br)cc3)cn2c1,–,inconclusive: -86.3% [activator]
Nc1nc(COc2ccc(Cl)cc2)cs1,"inconclusive: 8.91 µM [activator, partial curve, poor fit]",–
COc1ccc(Nc2c3c(nc4ccc(NC(=O)c5cc(Cl)ccc5OC)cc24)CCCC3)cc1OC,inactive,–
Cc1ccccc1Nc1nc(N)nc(COC(=O)c2ccco2)n1,active: 3.98 µM,–
CCOc1cc(NC(=O)C2CC2)c(OCC)cc1NC(=O)c1cccc(F)c1,inactive,–
CC1(c2nnnn2Cc2ccccc2)CCC(=O)N1Cc1cccnc1 (stereo not drawn),inactive,–
CCN1C(=O)/C(=C/C=C2/CCCN2C)OC1=S,active: 7.08 µM,–
CCc1ccc2oc(-c3cccc(NC(=O)c4cccnc4)c3)nc2c1,"inconclusive: 3.16 µM [activator, full curve, poor fit]",–
Cc1ccc(C(=O)c2coc3ccc(O)c(Cl)c23)cc1,"inconclusive: 35.5 µM [activator, single point]",–
OC(c1ccccc1)c1nc(/C=C/c2ccccc2)cs1 (stereo not drawn),active: 10 µM,–
O=C(c1cc(COc2ccc(F)cc2F)on1)N1C[C@H]2CC[C@H]1C2,"inconclusive: 14.1 µM [activator, partial curve, poor fit]",–
CC(=O)N1CCc2cc(C(=O)CN3CCN(c4ccccn4)CC3)ccc21,inactive,–
COC(=O)c1ccc(COC(=O)c2ccc(C)c(S(=O)(=O)N3CCCCC3)c2)cc1,"inconclusive: 3.98 µM [activator, partial curve, poor fit]",–
CC1CCN(C(=O)c2cc(-c3ccc(Cl)c(Cl)c3)on2)CC1,"inconclusive: 15.8 µM [activator, single point]",–
COc1cc(/C=N/n2cnnc2)ccc1OCc1ccc(C)cc1,active: 10 µM,–
O=C(NNC(=O)c1ccc(F)cc1F)c1ccc2c(c1)OCO2,"inconclusive: 11.2 µM [activator, partial curve, poor fit]",–
O=C(/C=C/c1ccc(F)cc1)NCCC1=CCCCC1,"inconclusive: 3.98 µM [activator, full curve, poor fit]",–
COc1ccc2nc(NC(=O)c3ccco3)sc2c1,–,inconclusive: -40.7% [activator]
Cn1nnc2cc(C(=O)Nc3ccc4ccccc4c3)ccc21,"inconclusive: 1.41 µM [activator, full curve, poor fit]",–
Cc1ccc(-c2csc3ncnc(N4CCN(C(=O)c5ccccc5)CC4)c23)cc1,inactive,–

Structure (SMILES),Potency,activation
CC(C)(C)c1ccc(NC(=O)c2ccc(=O)[nH]n2)cc1,"inconclusive: 1 µM [activator, full curve, poor fit]",–
COC(=O)c1cc(C(=O)OC)cc(N2C(=O)CN=C2Nc2nc(C)cc(C)n2)c1,inactive,–
O=C(Nc1ccc2ncccc2c1)c1ccccc1Br,active: 7.08 µM,–
CC(/C=N/N1CCN(c2ccccn2)CC1)=C\c1ccccc1,"inconclusive: 15.8 µM [activator, partial curve, poor fit]",–
O=C(CCSc1nc(-c2ccco2)cc(C(F)(F)F)n1)Nc1ccc2c(c1)OCO2,inactive,–
c1ccc2c(c1)oc1c(Nc3ccc4c(c3)OCO4)ncnc12,"inconclusive: 0.631 µM [activator, full curve, poor fit]",–
COc1ccc(C(=O)NNC(=O)c2ccccn2)cc1,–,inconclusive: -76% [activator]
O/C(=C\c1nc2ccccc2nc1/C=C(\O)c1ccccc1)c1ccccc1,inactive,–
Cn1c(-c2ccc(F)c(F)c2)cc2onc(-c3ccccc3)c2c1=O,"inconclusive: 1.12 µM [activator, full curve, poor fit]",–
O=C(CCc1nnc(CCCc2ccccc2)o1)NCCc1ccco1,"inconclusive: 25.1 µM [activator, single point]",–
CCCn1cnc2cc(NCc3cccs3)ccc21,"inconclusive: 25.1 µM [activator, single point]",–
Cc1ccsc1C(=O)OCc1cc(=O)n2ccsc2n1,"inconclusive: 11.2 µM [activator, partial curve, poor fit]",–
COc1ccc(CC(=O)O/N=C(\N)c2ccccn2)cc1,"inconclusive: 28.2 µM [activator, single point]",–
O=C(Nc1nccs1)c1ccc(Cl)s1,"inconclusive: 7.94 µM [activator, partial curve, poor fit]",–
CCc1cc(C(=O)O)c(NC(=O)/C=C/c2ccc(OC)cc2)s1,"inconclusive: 12.6 µM [activator, partial curve, poor fit]",–
N#CCC(=O)N/N=C\c1cc(Br)ccc1OC/C=C/c1ccccc1,active: 8.91 µM,–
Nc1ccc(-c2nc3ncccc3o2)c(O)c1,active: 5.01 µM,–
COc1cc2c(cc1OC)CN(CC(=O)Nc1ccccc1C(=O)NCc1ccccc1)CC2,inactive,–
Cc1nc(-c2ccc3c(c2)OCCO3)cs1,active: 7.94 µM,–
COC(=O)c1ccc(N2C(=O)CC(SCCN)C2=O)cc1 (stereo not drawn),"inconclusive: 11.2 µM [activator, partial curve, poor fit]",–
COc1ccc(C(=O)N2c3ccccc3C(=O)OC2c2ccc3c(c2)OCO3)cc1 (stereo not drawn),active: 11.2 µM,–
Cc1ccc(NC(=O)c2nnn(-c3ccc4c(c3)OCCO4)c2N)cc1,active: 5.62 µM,–
CCc1nnc(NC(=O)C2Cc3ccccc3CN2S(=O)(=O)c2cccs2)s1 (stereo not drawn),"inconclusive: 12.6 µM [activator, partial curve, poor fit]",–
